Measured values: ChEMBL document CHEMBL1201862, “PubChem BioAssay data set” (2004)
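Where inhibition never reached the appropriate level, the endpoint shown equals the highest concentration tested. Otherwise, values were interpolated linearly from a five-concentration, 48-hour dose response in 96-well plates. GI50 marks 50% less growth.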 Active and inactive are the calls of the source. No stated cut-off is given here; in the data, active = GI50 up to about 1.1 µM and inactive = higher.

These molecules were tested on NCI-H322M (assay: growth of human tumour cells (NCI), 48 h).

Row | Compound | GI50
1 | Cc1nc([N+](=O)[O-])cn1-c1nc2ccccn2c1[N+](=O)[O-] | inactive: 64.9 µM
2 | O=C(O)Cn1cnc2c(O)nc(Nc3ccccc3)nc21 | inactive: > 100 µM
3 | Clc1ccc(-c2c(C3=NCCCN3)nnn2-c2ccc(Cl)cc2)cc1 | inactive: 37.7 µM
4 | CN(C)CCn1c(=O)c2ccc3c4c(nn3CCN(C)C)c3ccccc3n(c1=O)c24 | active: < 0.124 µM
5 | C[C@]12CC[C@@H]3c4ccc(O)cc4CC[C@H]3[C@@H]1C/C(=C\c1ccc(C#N)cc1)C2=O | inactive: 48.4 µM
6 | CC(C)OC(=O)c1ccc(NCc2cc(O)ccc2O)cc1 | inactive: 9.35 µM
7 | Cc1ccc(C(=O)c2[nH]c(Nc3cc(C)ccn3)c(C(=S)Nc3ccccc3)c2N)cc1 | inactive: > 100 µM
8 | Cc1cccc(C)c1NC(=O)C(=O)CC(=O)CO | inactive: > 100 µM
9 | CCOC(=O)Cc1c(C)c2cc(C(=O)c3ccccc3)c(O)cc2oc1=O | inactive: 42.3 µM
10 | CC(C)(C)OC(=O)Cn1ncn(NC(=O)Cc2ccccc2)c1=O | inactive: > 10 µM
11 | O=C1/C(=C/c2ccccc2)CN(C(=O)CCN2CCCC2)C/C1=C\c1ccccc1 | inactive: 2.33 µM
12 | CCCCCCCCCc1cc(-c2ccc(C=O)s2)sc1-c1ccc(C=O)s1 | inactive: 54.7 µM
13 | C=C1C(=O)O[C@H]2[C@H]([C@H](C)CCCC(C)=O)O[C@H]([C@@]3(C)CCC(=O)O3)C[C@@H]12 | inactive: 57.7 µM
14 | CCN(CC)CC(=O)Nc1c(C(N)=O)nnn1Cc1cc(Cl)c(C(=O)c2ccc(Cl)cc2)c(Cl)c1 | inactive: 32.1 µM
15 | [N-]=[N+]=Nc1ccccc1-c1ccccc1[N+](=O)[O-] | inactive: > 100 µM
16 | COc1cc2c(cc1O)C(Cc1ccc(OCc3ccccc3)c(OCc3ccccc3)c1)N(C(=O)NCCc1ccccc1)CC2 (stereo unspecified) | inactive: > 100 µM
17 | CC(C)(C)c1cc(/C=C(\C#N)C2=NCCO2)cc(C(C)(C)C)c1O | inactive: 2.81 µM
18 | N#C/C(c1nc2ccccc2[nH]1)=c1\s/c(=C/c2ccc(Cl)cc2)c(=O)n1-c1ccccc1 | inactive: > 100 µM
19 | O=C1NCCS(=O)(=O)N[C@@H](CC2=CC=CCC2)C(=O)N2CCCC12 (stereo partly specified) | inactive: > 100 µM
20 | CCOC(=O)C12OC(OCC)(CC1(OCC)OCC)C1(CC1)C2=O (stereo unspecified) | inactive: > 100 µM
21 | CCOC(=O)C1=C(O)C(=O)c2ccsc2C1=O | inactive: > 100 µM
22 | COC(=O)[C@@H]1C[C@H]2OC(=O)CC[C@]2(C)O[C@H]1[C@H]1O[C@@](C)(O)CCC[C@H]1C | inactive: > 50 µM
23 | CCOP(=O)(OCC)C(C(=O)OC)C(=O)C(=O)Nc1c(C)cc(Br)cc1C (stereo unspecified) | inactive: > 100 µM

Row | Compound | GI50
24 | COC(=O)C1=C(CO)C2C=CC1C2 (stereo unspecified) | inactive: > 100 µM
25 | Cc1cc2c(c(C(=O)NCC(=O)N[C@@H](C)C(=O)OCc3ccccc3)c1)Oc1c(cc(C)cc1C(=O)NCC(=O)N[C@@H](C)C(=O)OCc1ccccc1)S2 | inactive: > 100 µM
26 | CC1(CF)SCc2nc3ccccc3n21 (stereo unspecified) | inactive: > 100 µM
27 | Cc1ccc(C(=O)c2nnc(C(=O)c3ccc(C)cc3)nn2)cc1 | inactive: 37.8 µM
28 | COc1ccc2c(c1O)[C@@]13CCCC=C1[C@@H](C2)N(C)CC3 | inactive: > 100 µM
29 | O=C1c2ccccc2-c2ccc(NC(=O)C3CCCCC3C(=O)O)cc21 (stereo unspecified) | inactive: > 100 µM
30 | CCO/C=C1\N=C(C(Cl)c2ccccc2)OC1=O (stereo unspecified) | inactive: > 100 µM
31 | Cc1cc(=O)cc2sc3cc(Cl)ccc3nc1-2 | inactive: 6.32 µM
32 | CN(C)CCNC(=O)C1COc2cc(-c3cc(=O)c4ccccc4o3)ccc2O1 (stereo unspecified) | inactive: 20.7 µM
33 | Cc1nc2c(cc1OCc1ccccc1)C(=O)C1=C(C2=O)C2OC(=O)CC2OC1(C)C (stereo unspecified) | inactive: 2.07 µM
34 | CC1=C(C(=O)NCC(C)O)CC(C(=O)NCC(C)O)=C(C)N1 (stereo unspecified) | inactive: > 100 µM
35 | CCOC(=O)/C(=C/NC(=S)Nc1c(CC)cccc1C(C)(C)C)C(=O)c1ccccc1 | inactive: > 100 µM
36 | O=C(O/N=c1/ccc(=O)/c(=N\OC(=O)c2ccccc2)c1=O)c1ccccc1 | inactive: > 100 µM
37 | COc1ccc(Nc2nc3ccc(C(F)(F)F)cc3nc2-c2ccccc2)cc1OC | inactive: 96.6 µM
38 | CC1=NN(C(=O)Cc2ccccc2)C(=O)/C1=C\c1ccco1 | inactive: > 100 µM
39 | O=[N+]([O-])c1ccc(Cl)cc1-n1nc(-c2ccccc2)cc1-c1ccccc1 | inactive: > 100 µM
40 | Cc1cc(N(CCC#N)CCC#N)ccc1C(=N/NC(=O)c1cc(Cl)ccc1O)/N=N/c1cccc(Cl)c1 | inactive: 12.1 µM
41 | CCOC(=O)c1c2cccccc2n2c(=O)cc(C)nc12 | inactive: > 100 µM
42 | Cc1ccc(S(=O)(=O)NNC2(NS(=O)(=O)c3ccc(Cl)cc3)C(Cl)=C(Cl)C(=O)c3ccccc32)cc1 (stereo unspecified) | inactive: 16.7 µM
43 | Cc1cc(NS(=O)(=O)c2ccc(NC(=O)c3cccc4c(NNc5ccc(S(N)(=O)=O)cc5)c5ccccc5nc34)cc2)no1 | inactive: 51.4 µM
44 | [O-][S+](c1ccc(O)cc1)c1ccc(O)cc1 | inactive: > 100 µM
45 | O=C(C#Cc1ccccc1)NC/C=C/c1ccccc1 | inactive: 40.6 µM
46 | CCCCCCCC(=O)OCC1OC(n2cc(F)c(=O)[nH]c2=O)C(N)C(O)C1O (stereo unspecified) | inactive: > 100 µM

Row | Compound | GI50
47 | CN(/N=C/c1ccccn1)C1=NCCCCN1 | inactive: > 100 µM
48 | CNC(=S)N/N=C(/C)CCC/C(C)=N/NC(=S)NC | inactive: > 100 µM
49 | C(=N\c1ccc2c(c1)Cc1ccccc1-2)/c1ccccn1 | inactive: > 100 µM
50 | CC1CCC2(OC1)OC1CC3C4CC=C5CC(OC6OC(CO)C(OC7OC(C)C(OC8OC(C)C(O)C(O)C8O)C(O)C7O)C(O)C6OC6OC(C)C(O)C(O)C6O)CCC5(C)C4CCC3(C)C1C2C (stereo unspecified) | active: 0.431 µM
51 | COc1cc2c(cc1OC)C13CCN4CC5=CCOC6CC(=O)N2C1C6C5CC43O (stereo unspecified) | inactive: > 100 µM
52 | O=C(O)/C=C/c1ccc2c(c1)CC1(Cc3ccccc3C1)C2 | inactive: > 100 µM
53 | COC(=O)[C@@H]1C2OC(C)(C)OC2CN1C(=O)OCc1ccccc1 (stereo partly specified) | inactive: > 100 µM
54 | Cc1ccc(NC(=O)C(=O)C(C#N)c2nc(-c3ccc(-c4ccccc4)cc3)cs2)c(C)c1 (stereo unspecified) | inactive: > 100 µM
55 | C/C(=C\COP(=O)(O)CP(=O)(O)O)CC/C=C(\C)CNc1ccccc1 | inactive: > 100 µM
56 | Cc1c(Cl)ccc2c1NC(=O)C2(O)CC(=O)c1ccc(Cl)cc1Cl (stereo unspecified) | inactive: > 50 µM
57 | c1ccc(C2=Nc3nc4ccccc4n3C(c3ccccc3)C2)cc1 (stereo unspecified) | inactive: > 100 µM
58 | O=C(O)c1c[nH]cc1C(=O)O | inactive: > 100 µM
59 | CCOC(=O)c1nnsc1N/N=C\c1ccc([N+](=O)[O-])cc1 | inactive: > 100 µM
60 | Clc1cc(Cl)c2n[se]nc2c1 | inactive: > 100 µM
61 | CC(C)C(OC(=O)c1ccc(NCC2=CC(=O)C=CC2=O)cc1)C(C)C | inactive: 22.1 µM
62 | COc1ccccc1NC(=O)C(=O)C(C(=O)c1ccccc1F)C1OC(=O)c2ccccc21 (stereo unspecified) | inactive: 25.2 µM
63 | CCC/C=C/C=C\C(=O)O[C@@H]1[C@@H](C)[C@]2(O)[C@@H]3C=C(C)C(=O)[C@H]3CC(COC(C)=O)=C[C@H]2[C@@H]2C(C)(C)[C@]12OC(C)=O | inactive: 33.3 µM
64 | N=C(N)Nc1ccc(CC(N)C(=O)O)cc1 (stereo unspecified) | inactive: > 12.5 µM
65 | C=CCNC(NCC=C)=C(C(Cl)=C(Cl)Cl)[N+](=O)[O-] | inactive: > 100 µM
66 | Cc1ccc(NC(=O)CC(=O)N2N=C(N(CCC#N)c3cccc(C)c3)CC2c2ccccc2)cc1 (stereo unspecified) | inactive: > 100 µM
67 | Cc1ccc(C(=O)/C=C/c2ccccc2Cl)cc1 | inactive: 27 µM
68 | Oc1c2cc(Cl)cc1COCc1cc(Cl)cc(c1O)COCc1cc(Cl)cc(c1O)COC2 | inactive: > 100 µM
69 | CC(=O)C(=CNc1c(C)n(C)n(-c2ccccc2)c1=O)C(C)=O | inactive: > 100 µM

Row | Compound | GI50
70 | O=C1/C(=N\O)C2CCC1C2 (stereo unspecified) | inactive: > 100 µM
71 | COc1cc2oc(=O)cc(C)c2c(OC)c1O | inactive: > 100 µM
72 | O=C1N(CN2CCOCC2)CN(CN2CCOCC2)C(=O)N1Cc1ccc(CN2C(=O)N(CN3CCOCC3)CN(CN3CCOCC3)C2=O)cc1 | inactive: > 100 µM
73 | Clc1ccc(Cn2cc(/C=N/n3cnnc3)c3ccccc32)cc1 | inactive: 49.4 µM
74 | CC(=O)Oc1ccc(OC(Oc2ccccc2)c2ccccc2)cc1 (stereo unspecified) | inactive: 37.3 µM
75 | Cc1ccc(S(=O)(=O)Nn2c(O)c(C#N)c(-c3ccc(Cl)cc3)c(C#N)c2=O)cc1 | inactive: > 100 µM
76 | C=CC(COC(=O)C(C)(C)OC(C)=O)c1ccc(OC(=O)C(C)C)c(OC)c1 (stereo unspecified) | inactive: 17.2 µM
77 | O=C(O)C12CCCC(CCC1)C2 | inactive: > 100 µM
78 | Cc1cc2[nH]c3c(C#N)c(-c4ccccc4)c(/C=N/c4ccc(F)cc4)c(=O)n3c2cc1C | inactive: > 100 µM
79 | O=c1nc(/C=C/c2ccccc2Cl)cc2n1CCN2CCO | inactive: 43.1 µM
80 | N#CC(NNC(=O)c1ccccc1O)c1ccccc1 (stereo unspecified) | inactive: 5.21 µM
81 | O=C(NC(O)(C(F)(F)F)C(F)(F)F)c1ccccc1 | inactive: > 100 µM
82 | CCN1CCCC(Nc2cc(C)nc(NC(=N)Nc3ccc(Cl)c(Cl)c3)n2)C1 (stereo unspecified) | inactive: 1.53 µM
83 | Cn1c2ccccc2c(=O)c2c([N+](=O)[O-])ccc(NCCN)c21 | inactive: 10.5 µM
84 | O=c1[nH][nH]c(=S)c(=O)[nH]1 | inactive: > 100 µM
85 | N=C(N)N/N=C/c1c(-c2cc([N+](=O)[O-])c(Cl)cc2Cl)nc2n1CCS2 | inactive: 16.6 µM
86 | c1cc(-c2ccc(-c3nc4ccc(C5=NCCN5)cc4s3)s2)ccc1C1=NCCN1 | active: 0.344 µM
87 | Cc1ncc([N+](=O)[O-])n1CCNC(=O)CCCCn1ccnc1[N+](=O)[O-] | inactive: 99.8 µM
88 | O=C1Cc2ccccc2N1c1c(Cl)cccc1Cl | inactive: > 100 µM
89 | NCCNCCNc1ccc(NCCNCCN)c2c1C(=O)c1c(O)ccc(O)c1C2=O | inactive: > 100 µM
90 | Cc1c2cc[n+](C)cc2c(C)c2c1[nH]c1ccc(OCC(F)(F)F)cc12 | inactive: 4.84 µM
91 | O=c1c(C(c2cc(OCc3ccccc3)cc(OCc3ccccc3)c2)c2c(O)oc3ccccc3c2=O)c(O)oc2ccccc12 | inactive: 9.66 µM
